# Hit rate of the full screen: of about 410,000 compounds, about 5,000 (1.2%) were called active. Inconclusive results, whose numbers are uncertain, are shown with a selection of clear calls. Calls follow the shape of the dose curve; as a rule, active = well fitted inhibition curve with a large enough effect; inconclusive = small, poorly fitted or top-dose-only effect; inactive = no such curve, though single readings can be large or run the other way. Potencies of inconclusive entries are doubtful fits and often do not repeat.
# Assay: qHTS for Inhibitors of TGF-b; also: nearly all actives have a fitted effect of over 65% in size
# Conditions: HepG2 CAGA-GFP TGF-b/SMAD3 reporter, GFP fluorescence, 18 h, TGF-beta stimulated, 500 pg/mL final; series mostly up to 46.1 µM
# Procedure, shortened: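 HEPG2 CAGA-GFP cells (1000/well, DMEM with 1% FBS) were pre-incubated 2 h at 37 degrees C, given compound by pin tool, then stimulated with TGF-beta at 500 pg/mL final for 18 h before per-cell GFP fluorescence imaging.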
# Potency is read from the fitted curve at half-maximal effect; tags tell the direction and shape of the fitted curve.
row,Structure (SMILES),Potency
1,COc1ccc(-c2noc(CCCCC(=O)N3CCN(c4cc(C)ccc4C)CC3)n2)cc1,"inconclusive: 22.4 µM [inhibitor, single point]"
2,CCC(C)NCCOCCOc1ccc(C)cc1OC (stereo not given),inactive
3,O=C(Oc1ccc(Br)cc1C(=S)N1CCCC1)c1ccccc1F,inactive
4,COC(=O)[C@@]1(Cc2ccc(F)cc2)[C@H]2c3cc(C(=O)N(C)C)n(Cc4ccc(OC)c(OC)c4)c3C[C@H]2CN1C(=O)c1ccccc1,inactive
5,Cc1ccc(NC(=O)CN2CCc3cc4c(cc3C2C)OCCCO4)cc1C (stereo not given),"inconclusive: 15.8 µM [inhibitor, partial curve, poor fit]"
6,COC(=O)c1cc(N/C(N)=N/c2nc(C)cc(C)n2)cc(C(=O)OC)c1,inactive
7,Cc1cc(NC(=O)C2CCCN(S(=O)(=O)c3ccc(Br)s3)C2)ccc1Br (stereo not given),"inconclusive: 11.2 µM [inhibitor, partial curve]"
8,COc1ccc(C(=O)NCCN2CCOCC2)cc1[N+](=O)[O-],"inconclusive: 20 µM [inhibitor, single point]"
9,COc1ccc(CC(=O)Nc2ccc(-c3nc4ccccc4s3)cc2Cl)cc1,"inconclusive: 20 µM [inhibitor, partial curve, poor fit]"
10,Cc1ccc(NC(=O)COC(=O)c2cccc3c2C(=O)c2ccccc2C3=O)c(C)c1,inactive
11,CCc1cc(C(=O)N(C)CC(=O)N(CC(C)C)c2c(N)n(CC(C)C)c(=O)[nH]c2=O)sc1C,"inconclusive: 6.31 µM [inhibitor, partial curve, poor fit]"
12,Cc1cccc(NC(=O)/C(C#N)=C\c2ccc(C(=O)O)cc2)c1,"inconclusive: 5.62 µM [inhibitor, single point]"
13,CCN1CCN(C(c2cccc(Cl)c2)c2c(O)cc(C)n(CCOC)c2=O)CC1 (stereo not given),inactive
14,CCc1ccc(Nc2nnc(SC3CCOC3=O)s2)cc1 (stereo not given),"inconclusive: 35.5 µM [inhibitor, partial curve, poor fit]"
15,Cc1ccc(NC(C)c2cc(Cl)ccc2O)cc1 (stereo not given),inactive
16,CCn1cc(C(=O)NCCCN(CC(C)C)CC(C)C)c(=O)c2cc(S(=O)(=O)N3CCc4ccccc4C3)ccc21,"inconclusive: 22.4 µM [inhibitor, partial curve, poor fit]"
17,CC(=O)NNC(=O)CCn1nnc2ccccc21,"inconclusive: 0.447 µM [inhibitor, full curve, poor fit]"
18,CCCc1nn(C)c(C(=O)Nc2ccccc2)c1Cl,inactive
19,O=C(COC(=O)c1cccs1)Nc1cccc(S(=O)(=O)N2CCOCC2)c1,inactive
20,CCN(Cc1nc2ccccc2c(=O)[nH]1)C(=O)c1cc2c(s1)CCCCC2,inactive
21,COCCCn1c(SCC(=O)Nc2ccc3c(c2)OCCO3)nnc1-c1ccoc1C,inactive
22,COc1cccc2oc3ccc(C#CC4(N)CCCCC4)cc3c(=O)c12,"inconclusive: 25.1 µM [inhibitor, single point]"

row,Structure (SMILES),Potency
1,COc1ccc2cc(S(=O)(=O)N3CCCC3)ccc2c1,inactive
2,O=C(Nc1nnc(S(=O)(=O)N2CCCCC2)s1)c1ccc(Cl)cc1,"inconclusive: 1.58 µM [inhibitor, full curve]"
3,O=C(CSc1nc2ncccc2[nH]1)c1cccc([N+](=O)[O-])c1,inactive
4,O=C1NC(=O)C(c2ccccc2[N+](=O)[O-])=C1Nc1ccc(O)c(Cl)c1,"inconclusive: 12.6 µM [inhibitor, partial curve]"
5,COc1ccccc1CNC(=O)c1cccc(S(=O)(=O)N2CCCC2)c1,inactive
6,C=CCc1ccc(OCC(O)CN2CCC(Cc3ccccc3)CC2)c(OC)c1 (stereo not given),"inconclusive: 35.5 µM [inhibitor, single point]"
7,CCOC(=O)/C=c1\s/c(=C\c2ccc(C(F)(F)F)cc2)c(=O)n1CC(=O)NCc1ccco1,inactive
8,COc1ccc(NC(=O)Nc2cccc3c2O[C@H](CN(C)S(=O)(=O)c2ccc(OC)cc2)[C@@H](C)CN([C@H](C)CO)C3=O)cc1,"inconclusive: 15.8 µM [inhibitor, partial curve, poor fit]"
9,Cc1ccc(N(CC(=O)NCCc2ccc(F)cc2)S(=O)(=O)c2ccc(Cl)c([N+](=O)[O-])c2)c(C)c1,"inconclusive: 12.6 µM [inhibitor, partial curve, poor fit]"
10,O=C(c1ccc(COc2ccccc2Br)o1)N1CCCCCC1,"inconclusive: 10 µM [inhibitor, single point]"
11,CCC(C)(C)n1nnnc1C(c1cccnc1)N1CCN(c2cccc(C(F)(F)F)c2)CC1 (stereo not given),"inconclusive: 35.5 µM [inhibitor, single point]"
12,CS(=O)(=O)N(Cc1ccc(Cl)cc1)c1ccc(C(=O)NCCSCc2ccco2)cc1,"inconclusive: 35.5 µM [inhibitor, single point]"
13,Cn1c(N)c(N2CCCCC2)c(=O)n(CC(=O)Nc2ccc(Cl)c(Cl)c2)c1=O,"inconclusive: 35.5 µM [inhibitor, single point]"
14,Cc1ccc(-c2cn3cccnc3n2)cc1NC(=O)c1ccc(Br)o1,inactive
15,O=C(CSc1nnc(CNc2cccc(C(F)(F)F)c2)n1Cc1ccco1)NCc1ccco1,"inconclusive: 11.2 µM [inhibitor, partial curve]"
16,COC(=O)c1cc(NC(=O)Nc2cccc(Cl)c2)ccc1Cl,active: 15.8 µM
17,C=CCSc1ncnc2c1oc1nc3c(cc12)COC(C)(C)C3,inactive
18,CCC(C)Sc1ccc([C@H]2N[C@@](Cc3ccccc3)(C(=O)OC)[C@H]3C(=O)N(CC)C(=O)[C@@H]23)cc1OC (stereo not given in full),inactive
19,CCN(CC)C(=O)[C@H]1C[C@H](CC(=O)NC(C)(C)C)C(=O)N2CCc3c([nH]c4cc(-c5ccco5)ccc34)[C@]12C,"inconclusive: 35.5 µM [inhibitor, single point]"
20,CC1(c2ccc3ccccc3c2)NC(=O)N(CC(=O)N2CCC(C(N)=O)CC2)C1=O (stereo not given),inactive
21,N#CC(C(=O)Nc1ccc(Cl)cc1)=C1Nc2ccccc2N1,"inconclusive: 11.2 µM [inhibitor, single point]"
22,O=S(=O)(NCCc1csc(-c2ccc(F)cc2)n1)c1ccc(F)cc1F,"inconclusive: 12.6 µM [inhibitor, single point]"

row,Structure (SMILES),Potency
1,COc1ccc(OC)c(N(CC(=O)NC2CCCC2)S(=O)(=O)c2ccc(OC)c(OC)c2)c1,inactive
2,COC(=O)N/N=C/c1cccc(OCCSc2ccc(Cl)cc2)c1,"inconclusive: 20 µM [inhibitor, single point]"
3,CC1=CC(C)C2C(=O)N(c3ccccc3)NC(=O)C2C1 (stereo not given),"inconclusive: 2.82 µM [inhibitor, full curve, poor fit]"
4,COc1ccc(-c2c(C3C4C=CCC(C)C4C(=O)N3Cc3ccccc3)ccc3ccccc23)cc1OC (stereo not given),"inconclusive: 14.1 µM [inhibitor, single point]"
5,COc1cc(CCC(=O)OCC(=O)NC2CCCC(C)C2C)cc(OC)c1OC (stereo not given),"inconclusive: 35.5 µM [inhibitor, single point]"
6,O=C(O)c1ccccc1C(=O)c1cccc2c(F)cccc12,"inconclusive: 35.5 µM [inhibitor, partial curve, poor fit]"
7,CCc1ccc(NC(=O)C(Cc2ccccc2)NS(=O)(=O)c2ccc3c(c2)CCN3C(C)=O)cc1 (stereo not given),"inconclusive: 17.8 µM [inhibitor, single point]"
8,CCCCN(C(=O)c1ccc2c(c1)OCCO2)c1c(N)n(CCCC)c(=O)[nH]c1=O,"inconclusive: 35.5 µM [inhibitor, single point]"
9,Cc1cccn2c(=O)c(/C=C(\C#N)C(=O)NCc3ccco3)c(N3CCCC(C)C3)nc12 (stereo not given),"inconclusive: 35.5 µM [inhibitor, single point]"
10,COc1ccccc1NC(=O)CN1CCN(CC(=O)Nc2ccc(OCc3ccccc3)cc2)CC1,"inconclusive: 11.2 µM [inhibitor, partial curve, poor fit]"
11,O=C(NCCc1nc2ccccc2n1CCOc1ccc(Cl)cc1)C1CCCCC1,"inconclusive: 35.5 µM [inhibitor, single point]"
12,CC(C)c1nnc(NC(=O)c2sc3ccccc3c2Cl)s1,"inconclusive: 15.8 µM [inhibitor, single point]"
13,Cc1ccc(-c2nc3scc(CCNS(=O)(=O)c4ccc(C)c(C)c4)n3n2)cc1,"inconclusive: 5.62 µM [inhibitor, single point]"
14,O=C(Nc1ccc(-c2nc3ccc(NC(=O)c4cccs4)cc3[nH]2)cc1)c1cccs1,"inconclusive: 12.6 µM [inhibitor, partial curve, poor fit]"
15,CCN(CC)c1ccc2cc(-c3nc4ccccc4n3C)c(=O)oc2c1,"inconclusive: 14.1 µM [inhibitor, single point]"
16,Cc1c(C(=O)N2CCc3ccccc32)oc2ccccc12,"inconclusive: 6.31 µM [inhibitor, single point]"
17,COc1cc([N+](=O)[O-])cc(/C=C2/SC(=S)N(Cc3ccccc3)C2=O)c1O,"inconclusive: 2.51 µM [inhibitor, full curve]"
18,O=C1OC(c2ccccc2)(c2ccc3cc(O)ccc3c2)c2ccccc21 (stereo not given),"inconclusive: 35.5 µM [inhibitor, single point]"
19,COc1ccccc1NS(=O)(=O)c1cc(NC(=O)c2ccc3ccccc3n2)ccc1Cl,"inconclusive: 35.5 µM [inhibitor, single point]"
20,COc1ccccc1CN1CCN(C(c2ccccc2)c2ccccc2)CC1,"inconclusive: 22.4 µM [inhibitor, single point]"
21,COc1ccc(S(=O)(=O)NCC(c2ccco2)S(=O)(=O)c2ccc(C)cc2)cc1C (stereo not given),active: 10 µM

# Source: PubChem BioAssay AID588855 (National Center for Advancing Translational Sciences (NCATS), 2011)
